Data reported in patent US8741307B2, “Hybrid prokaryotic-eukaryotic tubulins and use thereof” (Trustees of Dartmouth College, priority 2009, dated 2014).

Tests used:
[1] = molecular target: T1, Eg5 (a kinesin-5) motor domain (Homo sapiens, UniProt P52732); experiment: Gel filtration chromatography of Eg5 motor domain mixed 1:1 with HtubA/B; format: binding
T1 construct: When the Eg5 (a kinesin-5) motor domain was mixed in a 1:1 stoichiometric ratio with HtubA/B
T1 sequence (P52732 18-359 limits assumed): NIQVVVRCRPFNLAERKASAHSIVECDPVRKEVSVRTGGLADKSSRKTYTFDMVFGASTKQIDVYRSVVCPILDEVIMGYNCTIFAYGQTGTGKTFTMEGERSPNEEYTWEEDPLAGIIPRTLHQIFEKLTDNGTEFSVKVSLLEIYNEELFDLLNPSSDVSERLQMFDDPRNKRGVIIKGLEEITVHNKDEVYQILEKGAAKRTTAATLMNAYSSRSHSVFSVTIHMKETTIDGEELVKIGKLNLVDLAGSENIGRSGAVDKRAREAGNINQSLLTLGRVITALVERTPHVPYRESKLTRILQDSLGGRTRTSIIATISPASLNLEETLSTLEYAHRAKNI

[2] = molecular target: T1, Eg5 (a kinesin-5) motor domain; experiment: Stopped-flow MANT-ATP binding kinetics of kinesin; format: biochemical; conditions: fluorescent MANT-ATP, Eg5 in presence of the tubulin preparation
Description: The Eg5-HtubA/B complex was rapidly mixed with fluorescent MANT-ATP in a stopped-flow instrument. This experiment was designed to monitor the kinetics of ATP binding to kinesin in the absence and presence of HtubA/B. In the absence of HtubA/B, the rate of ATP binding was 0.5-1 sec−1 and in the presence of eukaryotic microtubules, the rate of ATP binding was 25-30 sec−1. When the kinesin-HtubA/B complex was mixed with MANT-ATP, a rate of ATP binding of 265±14 sec−1 was observed.

kinesin binding to HtubA/B complex after adding salt and ATP ([1]; additional salt and ATP added to Eg5-HtubA/B complex): dissociated
rate of ATP binding to kinesin [2]: 265 ± 14 s⁻¹
B1: HtubA/B: Hybrid bacterial-bovine tubulin heterodimer of HtubA (thioredoxin- and His-tagged) and HtubB (His-tagged) (protein)
chain 1: MKVNNTIVVSIGQAGNQIAASFWKTVCLEHGIDPLTGQTAPGVAPRGNWSSFFSKLGESSSGSYVPRAIMVDLEPSVIDNVKATSGSLFNPANLISRTEGAGGNFAVGYLGAGREVLPEVMSRLDYEIDKCDNVGGIIVLHAIGGGTGSGFGALLISSLREEYPDIPVLSCAVLPSPQVSSVVTEPYNTVFALHQLVENADACLIFDNEALFDLAHRKWNIESPTVDDLNLLITEALAGITASMRFSGFLTVEITLRELLTNLVPQPRLHFLMCAFAPLTPPDRSKFEELGIEEMIKSLFDNGSVFAACSPMEGRFLSTAVLYRGIMEDKPLADAALAAMREKLPLTEWIPTAFKIGYVEQPGISHRKSMVLLANNTEIARVLDRICHNFDKLWQRKAFANWYLNEGMDEMEITELRSNANDLVSEYQQAQDSGAKAKVQDSAGDTGMRAAAAGVSDDARGSMSLRDLVDRRR
chain 2: VREILSIHVGQCGNQIADSFWRLALREHGLTEAGTLKEGSNAAANSNMEVFFHKVRDGKYVPRAVLVDLEPGVIARIEGGDMSQLFDESSIVRKIPGAANNWARGHYTEGEKVIDQIMNVIDSAVEKTKGLQGFLMTHSIGGGSGSGLGSLILERLRQAYPKKRIFTFSVVPSPLISDSAVEPYNAILTLHTILENADGAVLLDNEALFRIAKAKLNRSPNYMDLNNIIALIVSSVTASLRFPGKLNTDLSEFVTNLVPYPRGHFLTASFAPMRGAGQEGQVRTNFPDLARETFAQDNFTAAIDWQQGVYLAASALFRGDVKAKDVDENMATIRKSLNYASYMPASGGLKLGYAETAPEGFASSGLALVNHTGIAAVFERLIAQFDIMYAKRAYTHWYVGEGVEEGEMSEAREDIAALEKDYREVG
modifications: left off: large carriers; small tags and cut ends
kinesin binding to HtubA/B dimer (elution of complex) ([1]; 1:1 stoichiometric ratio, absence of additional salt and ATP): eluted from the column at an apparent molecular weight of a trimeric complex
